Here are results for 44 sequences from the supplement of paper PMC11417369.

± gives the standard deviation of the averaged measurements. The list shows a part of the results.

For the assay, the system named is PfAP2-G AP2 domain (GST-tagged). Briefly: gcPBM binding intensity (ln(normalized median fluorescence intensity)); higher = stronger DNA binding. An outline of the steps: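 Plasmodium falciparum DNA-binding domains carrying a GST tag were expressed in E. coli and applied for 1 h, at about 25 μg on average, to an Agilent 4 × 180k array. The array held primer-extended double-stranded 36-bp intergenic genomic probes together with negative controls, and binding took place in 1× PBS with 1% milk, 0.2 mg/ml BSA, 0.5% salmon testes DNA and 0.03% Triton X-100. An Alexa488 anti-GST antibody detected bound protein, and the array was scanned at 488 nm. Binding intensity is taken as the highest Masliner-normalised natural-log median intensity across replicate spots of either probe orientation.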
Turning to “TATATATATATATATATACACACTTGTGCAGAATAT [CACACA_site2216]”, the “gcPBM binding intensity (ln)” value was found to be 10.1 ± 0.42.
As to “ATATTCATGTTGATATGTACTTATTCTATATTGAAT [XGTACX_site8347]”, the “gcPBM binding intensity (ln)” value was found to be 11.2 ± 0.86.
With “ATCAGTGATTAGGTTATATATAAAAATGAACTAATA [GTGCAC_negctrl_site647]” the figure was 9.855 ± 0.049.
In the case of “TATGATATTTATATGCGTACTGAAGTATGCCTATTT [XGTACX_site6133]”, the “gcPBM binding intensity (ln)” value worked out at 11.2 ± 0.79.
“AAAAAATTAAAAATACGTACATATATACATATATAT [XGTACX_site4621]”: the “gcPBM binding intensity (ln)” value was determined as 11.4 ± 0.92.
With TCTTAAAATATATAGGTGCAAAAAAAAAAAAAAAAA the figure was 9.76 ± 0.57.
Under “AAAGAAAGAAGACACACACACATATATAAATATCAA [CACACA_site7715]” stands 9.93 ± 0.11.
With “AATACAAGAACTGACACACATACATACTACATTTTA [CACACA_site2829]” the figure was 10.3 ± 0.2; with “ATATTTATATATAGTAGTACTTTCAATAATTTAAAT [XGTACX_site7276]”, 11.4 ± 0.84.
“ATATAAATTTTTTATGAACACACAAATACAGACACT [CACACA_site8848]”: the “gcPBM binding intensity (ln)” value amounted to 10.7 ± 0.47.
With “GTATATGAGAAAAAAAGTACATGCACAAAATGTATA [XGTACX_site6441]” the figure was 11.5 ± 0.79.
Under “TGTTTTTATTTATTCTGTACTGAAGAGAGTTATATA [XGTACX_site8859]” stands 10.9 ± 0.61.
“TTTAAATACAGACATACACACATACACCCACATATA [CACACA_site8078]”: the “gcPBM binding intensity (ln)” value was determined as 10.5 ± 0.47.
With “TAAGAAATAAATAGTACACACATAGACACAGACACA [CACACA_site4934]” the figure was 11.4 ± 0.93.
With “AAAAAAAAAAGAATAGCACACACACCGATATAAATA [CACACA_site8111]” the figure was 9.96 ± 0.13.
With “TAGGTATGCTCTCAATGTACATAAAATAATTTTACT [XGTACX_site6556]” the figure was 11.1 ± 0.67; with “ATAATTAAAAAAAATTGTACATATAAATAGAAGATT [XGTACX_site230]”, 11.1 ± 0.53.
Turning to “AGATTAAAATAATATAAACACACATATACTTTTTTC [CACACA_site8085]”, the “gcPBM binding intensity (ln)” value is 10.2 ± 0.25.
“TCATTTTAAAAAAATAGTACTTTAAGAAACTTTTAT [XGTACX_site602]”: the “gcPBM binding intensity (ln)” value came out at 10.9 ± 0.56.
With “TTTTTTTTTTTTTTTTTTTATGTATACATATTTATA [TGCATGCA_negctrl_site234]” the figure was 9.77 ± 0.55; with “AGCATTAATTATTTCACACATATATATATATATATA [CACACA_site4889]”, 10.1 ± 0.28; with “TAAATCCTTTACAACACACACACAAAAAAAAAAAAA [CACACA_site643]”, 10 ± 0.61.
On to “GATATTCTATAAAAAAGTACAAATATTTTAAAAAAT [XGTACX_site2177]”, for which the “gcPBM binding intensity (ln)” value amounted to 11.3 ± 0.94.
For the sequence “AACAACAACTAATATGCACACATTTAAAAACAAAAT [CACACA_site2440]”, the “gcPBM binding intensity (ln)” value is 10.3 ± 0.36.
With “TATTTTTTTTTTTTTTTACACACTATAGGGAAAAAA [CACACA_site8583]” the figure was 10 ± 0.3; with “ATTAAAATTTAAAATACACACACATATATATAATAT [CACACA_site8612]”, 10.1; with “TAAAATGTACAGGACGCACACACATATATATATATA [CACACA_site3673]”, 11.2 ± 0.78.
With “TTTTTTTTTTTTCATTGTACTCTTAAAAATTCAACT [XGTACX_site3154]” the figure was 11.4 ± 1.2; with “TTATAATGAAATATATTCTTATTCTTTTTTTTTTTT [GTGCAC_negctrl_site384]”, 9.47 ± 0.028.
With “GGAGACTTTGTATTGGGTACGTATTTCAATGCATGT [XGTACX_site1596]” the figure was 11.3 ± 0.85; with “GCTTCTTAATATCATACACACATAGATATATTTATA [CACACA_site5676]”, 9.925 ± 0.078.
Turning to “ACGAATTAAATTTGCTGTACCAAAAAGAAAACAATA [XGTACX_site5511]”, the “gcPBM binding intensity (ln)” value was found to be 10.9 ± 0.53.
“CATACATACATACATACACACACATATATATATATA [CACACA_site8593]”: the “gcPBM binding intensity (ln)” value turned out to be 10.7 ± 0.49.
With “AAACCTTTACATCGTTTGCACTATATTGATATGTGT [GTGCAC_site9686]” the figure was 9.91 ± 0.11; with “TTTTTTAACAAAAATAAAACATAACTGAATTAAAAG [GTGCAC_negctrl_site244]”, 10 ± 0.11; with “CTTCCTATATTTTACTGTACTTTTTTTTTTTTTTTT [XGTACX_site4016]”, 11.7 ± 0.98.
With “ATATATAAGGAAAAAAGTACTTATATTTTTTTTTTG [XGTACX_site1909]” the figure was 11.1 ± 0.61; with “TTTATGTGTATTAAGTGTACACATATAGTGTATTTT [XGTACX_site999]”, 11.6 ± 1.1; with “GAAAACATAAAAATATGTACTTAAAATATATTTTGT [XGTACX_site868]”, 11.2 ± 0.85.
With “AAAACGAAACATCTGTGTATAAGTCTATATTATTAT [XGTACX_negctrl_site301]”, the “gcPBM binding intensity (ln)” value was 9.79 ± 0.12.
Under “AACAAATGTTAAATGTTTAAGGAGAAAATAAAGACA [CACACA_negctrl_site1163]” stands 10 ± 0.11; under “TGTCATGATACATACACACACATACCCATACCCATA [CACACA_site5211]”, 10.5 ± 0.33; under “AAATAAAGCATGTGCTGTACAAACGAAATATTTAAG [XGTACX_site3146]”, 10.8 ± 0.12.
With “AACTAATTCATGTTATATTAGATAAAAAAAAAAAAA [TGCATGCA_negctrl_site340]” the figure was 9.76 ± 0.37.
